Legend:
[1] = system: NIH3T3-AXL cl.7 fibroblasts; test: AlamarBlue Gas6-induced proliferation assay; type: cell-based; conditions: 20 μg/ml antibody, with or without 400 ng/ml Gas6, 96 h
Experimental: In vitro experiments were conducted in order to determine the ability of the rat anti-AXL antibodies of the invention to inhibit Gas6-induced cell proliferation. For this purpose, 2,500 NIH3T3-AXL cl.7 fibroblasts per well were seeded in FCS-containing medium on 96 well plates over night. […] Cells were treated with or without 400 ng/ml mouse Gas6 (R&D Systems) by adding ligand directly to the antibody solution, and were then left to grow for 96 h. AlamarBlue™ (BIOSOURCE #DAL1100) was added and incubated at 37° C. in the dark. Absorbance was measured at 590 nm every 30 min. The data were taken 4 h after addition of AlamarBlue™.

[2] = system: NCI-H292 lung cancer cells; test: Wound healing/scratch assay; type: cell-based, human; conditions: 10 μg/ml antibody, 24 h, compared to isotypic control antibody
From the text: To examine the migration and proliferation rates of different cells and culture conditions, in vitro wound healing/scratch assays are being employed for many years. These assays generally involve growing a confluent cell monolayer first. A small area is then disrupted and a group of cells are being destroyed or displaced by scratching a line through the layer with, for example, a pipette tip. The open gap is then inspected microscopically over time as the cells move in and fill the damaged area (“healing”). In brief, 1.5×10^6 NCI-H292 lung cancer cells were seeded per well of a 12 well dish and cultured in normal growth medium (RPMI, 10% FCS). After 8 h, cells were rinsed with PBS and starved in low serum medium (RPMI, 0.5% FCS) over night for 24 h. Using a sterile 200 μl pipette tip, three separate uniform wounds per well were scratched through the confluent NCI-H292 cell monolayers. […] Cells were permitted to migrate into the area of clearing for 24 h, washed once with PBS and fixed with ice cold Methanol (100%) at −20° C. After cells were stained with crystal violet (0.5% in 20% Methanol), rinsed with water and dried over night, photos of the wounds were taken.

AXL = biological target: T1, AXL (Homo sapiens, UniProt P30530); test: AXL receptor tyrosine phosphorylation ELISA; type: cell-based; design: expressed in transfected cells; host or cells: NIH3T3-AXL cl.7 (pLXSN-hAXL) and NCI-H292 lung cancer cells (endogenous AXL); conditions: 10 μg/ml antibody, 400 ng/ml Gas6; NIH3T3-AXL cl.7 fibroblasts and NCI-H292 lung cancer cells
T1 sequence (P30530 26-894): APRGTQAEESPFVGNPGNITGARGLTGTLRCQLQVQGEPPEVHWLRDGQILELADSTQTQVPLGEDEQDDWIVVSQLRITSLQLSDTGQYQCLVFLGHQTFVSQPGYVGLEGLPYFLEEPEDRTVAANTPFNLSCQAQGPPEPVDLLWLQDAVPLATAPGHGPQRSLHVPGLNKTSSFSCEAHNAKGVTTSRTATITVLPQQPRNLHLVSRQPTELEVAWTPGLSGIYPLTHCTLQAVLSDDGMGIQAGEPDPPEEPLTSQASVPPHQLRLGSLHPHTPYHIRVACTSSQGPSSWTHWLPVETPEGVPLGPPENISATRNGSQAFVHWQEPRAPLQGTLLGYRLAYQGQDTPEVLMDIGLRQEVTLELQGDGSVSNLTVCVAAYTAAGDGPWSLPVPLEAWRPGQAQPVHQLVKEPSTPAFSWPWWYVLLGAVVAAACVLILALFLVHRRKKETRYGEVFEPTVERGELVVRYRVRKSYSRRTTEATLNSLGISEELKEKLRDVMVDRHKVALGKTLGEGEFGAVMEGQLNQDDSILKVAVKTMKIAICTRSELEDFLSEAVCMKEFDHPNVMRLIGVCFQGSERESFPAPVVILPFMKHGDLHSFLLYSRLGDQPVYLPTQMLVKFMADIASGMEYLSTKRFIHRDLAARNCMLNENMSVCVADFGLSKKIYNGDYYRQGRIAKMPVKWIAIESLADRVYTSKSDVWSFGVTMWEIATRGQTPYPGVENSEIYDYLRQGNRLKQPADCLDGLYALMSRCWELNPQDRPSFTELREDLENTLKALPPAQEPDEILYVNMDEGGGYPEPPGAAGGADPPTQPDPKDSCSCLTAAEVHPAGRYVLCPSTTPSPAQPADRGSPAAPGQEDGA
Experimental: ELISA experiments were performed in order to investigate whether the rat anti-AXL antibodies of the invention are able to block ligand Gash-mediated activation of AXL. Gas6-mediated AXL activation was detected by increased receptor tyrosine phosphorylation. In brief, on day 1, 3×10^4 cells per well were seeded in normal growth medium in flat-bottom 96 well plates. The next day, growth medium was replaced by serum-free medium to starve cells over night for 24 h. Also over night, black Maxi-Sorp 96 well plates (Nunc) were coated with mouse anti-phospho-tyrosine antibody 4G10 at 2 μg/ml PBS and 4° C. On day 3, the 4G10 antibody solution was removed and Maxi-Sorp wells were blocked with PBS, 0.5% BSA for at lest 4 h at room temperature. […] Medium was then flicked out and cells were lysed in lysis buffer (50 mM HEPES, pH 7.5, 150 mM NaCl, 1 mM EDTA, 10% glycerine, and 1% Triton X-100) supplemented with phosphatase and protease inhibitors (10 mM Na4P2O7, 1 mM phenylmethylsulfonyl fluoride, 1 mM orthovanadate, 1 mM NaF, and 0.5% aprotinin) for 30 min on ice. […] Using a Victor plate reader (Perkin Elmer), the fluorescence of each well was collected at an excitation wavelength of 430 nm and an emission wavelength of 580 nm.

B1: 11D5: antagonistic rat anti-AXL monoclonal antibody, rat IgG2a (antibody)
heavy: EVQLQESGPGLVKPSQSLSLTCSVTGYSITSNYWGWIRKFPGNKMEWIGHITNSGNTTYNPSLKSRISISRDTSRNQFFLQLNSVTTEDTATYYCAKGAFDYWGQGVMVTVSS[left out - human IgG1 constant region]
light: DIQMTQSPSSMSTSLGDRVTITCRASQDIGNYLSWFQQKVGKSPRRMIYGAIKLAVGVPSRFSGSRSGSDYSLTISSLESEDMAIYYCLQYIQFPLTFGSGTKLELKRTVAAPSVFIFPPSDEQLKSGTASVVCLLNNFYPREAKVQWKVDNALQSGNSQESVTEQDSKDSTYSLSSTLTLSKADYEKHKVYACEVTHQGLSSPVTKSFNRGEC
modifications: 11D5 HC gamma1; 11D5 LC kappa
notes: antagonistic rat anti-AXL monoclonal antibody, rat IgG2a
For B1, the cell proliferation [1] was “blocked Gas6-induced proliferation”, the “re-population of the cleared area (wound closure)” value [2] was “reduced the re-population of the cleared area” and the “ligand-mediated AXL activation (phosphorylation)” value (AXL) was “able to block or reduce ligand-mediated AXL activation”.
